Results published in paper PMC7994203.
No constants are given. Whether binding was seen depends on the method and setting. In cells and extracts the contact can be indirect. Some binding calls cover weakened binding; strength is not graded here.

Assays:
Assay in all cases: co-IP; anti-Myc (antibody or Myc-trap) immunoprecipitates of HEK293 lysates with overexpressed Myc-tagged CBL variants, blotted for the partner; IP lysis buffer 50 mM Tris-HCl pH 7.5, 150 mM NaCl, 1 mM EDTA, 1% IGEPAL CA-630, 4 °C; cells without EGF or with 50 ng/ml EGF for 5 min; in some panels cells treated with EGFR inhibitors (AG18, AG1478, gefitinib, erlotinib)
[1] = molecular target: Myc-tagged CBL-Y371H (UniProt P22681)
[2] = molecular target: Myc-tagged CBL-Y371C (UniProt P22681)
[3] = molecular target: Myc-tagged CBL-70Z (UniProt P22681)
[4] = molecular target: Myc-tagged CBL-Y371D (UniProt P22681)
[5] = molecular target: Myc-tagged CBL-Y371S/Y3F (UniProt P22681)
[6] = molecular target: Myc-tagged CBL-Y371A (UniProt P22681)
[7] = molecular target: Myc-tagged CBL-R420L (UniProt P22681)
[8] = molecular target: Myc-tagged CBL-R420Q (UniProt P22681)
[9] = molecular target: Myc-tagged CBL-Y371S/G306E (UniProt P22681)
[10] = molecular target: Myc-tagged CBL-Y371S (UniProt P22681)
[11] = molecular target: Myc-tagged WT-CBL (UniProt P22681)
[12] = molecular target: Myc-tagged CBL-Y371F (UniProt P22681)
[13] = molecular target: Myc-tagged CBL-Y371E (UniProt P22681)

binding [1]: binds
binding [2]: binds
binding [3]: binds
binding [4]: binds
binding [5]: no binding
binding [6]: binds
binding [7]: binds
binding [8]: binds
binding [9]: no binding
binding [10]: binds
binding [11]: binds
binding [12]: binds
binding [13]: binds
Substance: CIN85 (CBL-interacting protein of 85 kDa) (from UniProt Q96B97 1-665)
